Substitutions are numbered along the chain they refer to.

The target in the assay is Trastuzumab. Description: cell-based or functional assay.

B1: PEL-10 (peptide)
peptide: CFNMQQQRRFYEALHDPNLNEEQRNAKIKSIRDD
modifications: added Cys 1 S-arylated with the electrophile of OAC-01 (from 4-bromobenzenesulfonyl fluoride); C-terminal amide
Turning to B1, the “Heavy chain total conversion (SDS-PAGE; 100 mM HEPES pH8.5)” value is 44% and the “Heavy chain total conversion (SDS-PAGE; 100 mM phosphate pH7.2)” value turned out to be 22%.

B2: PEL-11 (peptide)
peptide: FNCQQQRRFYEALHDPNLNEEQRNAKIKSIRDD
modifications: Cys 3 S-arylated with the electrophile of OAC-01 (from 4-bromobenzenesulfonyl fluoride); C-terminal amide
Consider B2, for which the “Heavy chain total conversion (SDS-PAGE; 100 mM HEPES pH8.5)” value is 32% and the “Heavy chain total conversion (SDS-PAGE; 100 mM phosphate pH7.2)” value was determined as 12%.

B3: PEL-13 (peptide)
peptide: B2 peptide with C3M, E21C
modifications: Cys 21 S-arylated with the electrophile of OAC-01 (from 4-bromobenzenesulfonyl fluoride); C-terminal amide
With B3, the “Heavy chain total conversion (SDS-PAGE; 100 mM HEPES pH8.5)” value stood at 12% and the “Heavy chain total conversion (SDS-PAGE; 100 mM phosphate pH7.2)” value amounted to 4%.

B4: PEL-14 (peptide)
peptide: B2 peptide with C3M, N24C
modifications: Cys 24 S-arylated with the electrophile of OAC-01 (from 4-bromobenzenesulfonyl fluoride); C-terminal amide
As to B4, the “Heavy chain total conversion (SDS-PAGE; 100 mM HEPES pH8.5)” value was determined as 8% and the “Heavy chain total conversion (SDS-PAGE; 100 mM phosphate pH7.2)” value is 4%.

B5: PEL-12 (peptide)
peptide: B2 peptide with C3M, N17C
modifications: Cys 17 S-arylated with the electrophile of OAC-01 (from 4-bromobenzenesulfonyl fluoride); C-terminal amide
For B5, the “Heavy chain total conversion (SDS-PAGE; 100 mM HEPES pH8.5)” value worked out at 30% and the “Heavy chain total conversion (SDS-PAGE; 100 mM phosphate pH7.2)” value came out at 10%.

B6: PEL-15 (peptide)
peptide: B2 peptide with C3M, R31C
modifications: Cys 31 S-arylated with the electrophile of OAC-01 (from 4-bromobenzenesulfonyl fluoride); C-terminal amide
For B6, the “Heavy chain total conversion (SDS-PAGE; 100 mM HEPES pH8.5)” value came to 9% and the “Heavy chain total conversion (SDS-PAGE; 100 mM phosphate pH7.2)” value came out at 0%.

For the origin of these results see patent publication US20250127918A1 (MIT, published 2025).
